Article PMC4336329 (PLoS ONE, 2015)
About 2,200 (0.71%) of roughly 310,000 compounds showed an effect of 50% or more. Effects have a minus sign here. The list shows a part of the results.

Molecular target: human ether-à-go-go-related gene (hERG) potassium channel (human, UniProt Q12809)
Assay: primary screen, population patch clamp on CHO cells stably expressing hERG

Sequence of human ether-à-go-go-related gene (hERG) potassium channel (Q12809 whole entry, looked up): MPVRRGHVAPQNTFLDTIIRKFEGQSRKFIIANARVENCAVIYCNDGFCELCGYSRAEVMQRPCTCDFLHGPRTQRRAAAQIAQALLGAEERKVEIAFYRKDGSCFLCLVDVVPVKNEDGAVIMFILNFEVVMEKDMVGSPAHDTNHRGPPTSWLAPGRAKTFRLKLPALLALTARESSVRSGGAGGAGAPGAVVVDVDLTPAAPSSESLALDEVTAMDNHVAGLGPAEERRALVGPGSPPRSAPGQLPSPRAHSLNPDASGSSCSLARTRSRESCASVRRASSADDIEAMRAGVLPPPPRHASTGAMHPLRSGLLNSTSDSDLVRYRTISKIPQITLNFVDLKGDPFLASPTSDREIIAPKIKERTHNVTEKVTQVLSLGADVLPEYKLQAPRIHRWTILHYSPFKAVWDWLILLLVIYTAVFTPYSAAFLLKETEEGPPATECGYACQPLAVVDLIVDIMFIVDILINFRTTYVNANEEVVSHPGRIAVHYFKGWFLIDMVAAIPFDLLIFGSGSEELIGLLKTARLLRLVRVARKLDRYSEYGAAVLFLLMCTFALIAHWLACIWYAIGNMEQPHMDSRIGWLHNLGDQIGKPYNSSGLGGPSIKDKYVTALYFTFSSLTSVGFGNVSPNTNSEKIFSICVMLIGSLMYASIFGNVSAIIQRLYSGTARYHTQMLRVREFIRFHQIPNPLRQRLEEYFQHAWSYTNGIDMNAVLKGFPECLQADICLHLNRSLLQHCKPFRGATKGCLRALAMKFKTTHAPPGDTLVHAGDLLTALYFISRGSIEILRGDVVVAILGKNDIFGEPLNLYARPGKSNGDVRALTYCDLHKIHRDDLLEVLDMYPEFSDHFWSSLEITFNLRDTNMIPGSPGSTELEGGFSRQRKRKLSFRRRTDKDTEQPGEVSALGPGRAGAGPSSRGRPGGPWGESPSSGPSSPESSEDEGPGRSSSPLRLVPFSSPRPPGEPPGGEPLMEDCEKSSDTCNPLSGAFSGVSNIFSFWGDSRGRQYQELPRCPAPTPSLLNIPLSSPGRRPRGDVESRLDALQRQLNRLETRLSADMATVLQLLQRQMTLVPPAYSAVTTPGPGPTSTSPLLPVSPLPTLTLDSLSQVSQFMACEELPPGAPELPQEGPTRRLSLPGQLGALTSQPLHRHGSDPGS

Row | SMILES | hERG current change (%, negative = inhibition) at 1uM
1 | CC1CCCN(C(=O)C2CCN(c3nc(-c4ccccc4)nc4c3CCC4)CC2)C1 (stereo not shown) | -0.788%
2 | CN(C(=O)C1CCC(=O)N(Cc2cccc(F)c2)C1)C1CCCCC1 (stereo not shown) | 3.07%
3 | Cc1csc(NC(=O)c2cc(=O)[nH]c3ccc(S(=O)(=O)N4CCOCC4)cc23)n1 | 1.48%
4 | Cc1ccc(NC(=O)CC(C)CC(=O)NCc2ccccc2)cc1Cl (stereo not shown) | 9.95%
5 | O=C(Nc1ccnn1C1CCN(C/C=C/c2ccccc2)CC1)c1ccccc1 | -64.4%
6 | CSc1nnc(CNS(=O)(=O)c2ccc(F)cc2)n1C | 16.4%
7 | Cc1ccnc(NC(=O)CCC(=O)N(CC(=O)NCCc2ccccc2)c2ccccc2F)c1 | 16.6%
8 | CCCCCCCCCC(=O)N[C@H](CN1CCOCC1)[C@H](O)c1ccccc1.Cl | 6.51%
9 | C=CCSc1nnc(NC(=O)c2ccc(NC(C)=O)cc2)s1 | 11.7%
10 | CC(NC(=O)c1ccc(Br)o1)C1CC2CCC1C2 (stereo not shown) | 11%
11 | Nc1nonc1-c1nc2ccccc2n1Cc1ccc(F)cc1 | -0.308%
12 | COc1ccc(N2CCN(C(=O)c3cccn4c(=O)c5ccccc5nc34)CC2)cc1 | -5.47%
13 | Cc1ccccc1N1CCN(CCCOc2ccc3c(C)cc(=O)oc3c2)CC1 | -56.2%
14 | COc1ccc(-c2csc(Nc3ncccn3)n2)cc1C | 13%
15 | CCc1ccc(NC(=S)NCC2CCCN2CC)cc1 (stereo not shown) | 1.35%
16 | COCCN1CC(=O)N(c2cccc(C)c2C)C(c2ccc(Cl)cc2)C1=O (stereo not shown) | 3.01%
17 | Cc1ccc(C)c(NCCC#N)c1 | 11.4%
18 | O=C(CCc1nc2ccccc2c(=O)[nH]1)NCCN1C(=O)S/C(=C\c2ccc(Cl)cc2Cl)C1=O | 13.9%
19 | Cc1cccc(C)c1OC(=O)Cc1ccccc1 | 12.6%
20 | C=CCN1c2ccccc2[C@]23C[C@@H](C(=O)OC)N=C2NC(C(=O)OC)=C(C(=O)OC)[C@H]13 | 1.34%
21 | CCOC(=O)N/N=C\c1cccc(OC)c1OC/C=C/c1ccccc1 | 1.24%
22 | COC(=O)c1ccc(NC(=O)CSc2nc3ccc(N4C(=O)C5C6C=CC(C6)C5C4=O)cc3s2)cc1 (stereo not shown) | 10.4%

Row | SMILES | hERG current change (%, negative = inhibition) at 1uM
23 | COc1cc(OC)cc(-c2cc3nc(C)c(CCC(=O)NC(C)CCc4ccco4)c(C)n3n2)c1 (stereo not shown) | -11.2%
24 | COc1ccc(-n2ncc3c(=O)n(CC(=O)N4CCCc5ccccc54)cnc32)cc1 | 3.45%
25 | CN=C(Nc1cc(C)nn1-c1ccccc1)c1ccc(F)cc1 | -4.19%
26 | CCN1C(=O)C(CC(=O)Nc2cccc(C(C)=O)c2)S/C1=N\c1ccccn1 (stereo not shown) | 18.6%
27 | Cn1c(SCc2cccc([N+](=O)[O-])c2)nc2c(c1=O)SCC2 | 3.35%
28 | CC(C)CNC(=O)CC(=O)N/N=C/c1ccc(Br)cc1 | 11.7%
29 | CN(c1ccc(C(=O)N2CCOCC2)cc1)S(=O)(=O)c1ccc(Cl)cc1 | -3.14%
30 | CCn1cc(C(=O)Nc2ccccc2)c(=O)c2ccc(C)nc21 | 15.8%
31 | O=C(NCc1ccccn1)c1cc2cc(Br)ccc2oc1=O | 8.75%
32 | Cn1c(Cn2c(C(F)(F)F)nc3ccccc32)nc2ccccc21 | -5.06%
33 | CCCCC/C(=N\NC(=O)CCC(=O)NCc1ccccc1)c1ccccc1 | 8.86%
34 | COc1ccc(N2C(=O)C3C(c4ccc(C(=O)O)cc4)NC(Cc4ccccc4)(C(=O)O)C3C2=O)c([N+](=O)[O-])c1 (stereo not shown) | 3.69%
35 | Cc1cc(=O)[nH]c(SCC(=O)NCc2ccc3c(c2)OCO3)n1 | 16.2%
36 | COc1cc(S(=O)(=O)NC2CCCCC2)c(C)cc1C | 2.42%
37 | COc1ccc2c(c1)c(C(=O)O)c(C)n2-c1ccccc1 | 9.06%
38 | CCOc1ccc(-n2c(SCC(N)=O)nnc2-c2cccnc2)cc1 | -3.26%
39 | O=C(Nc1nnc(C2CCCCC2)s1)C1CC(=O)N(c2ccc(F)cc2)C1 (stereo not shown) | 9.09%
40 | O=C(O)c1cc(NC(=O)c2ccc3c(c2)C(=O)N(Cc2ccccc2)C3=O)cc(C(=O)O)c1 | 11.7%
41 | O=C(CSc1nnc2scc(-c3ccccc3)n12)NCC1CCCO1 (stereo not shown) | 8.22%
42 | CC(C)c1ccc(N(CC(=O)NCc2ccc(F)cc2)C(=O)c2csnn2)cc1 | 3.63%
43 | O=c1[nH]c2ccsc2c(=O)n1-c1ccc(F)cc1 | 15.3%
44 | CCOc1ccc(/C=N/NC(=O)C(OC)c2ccccc2)cc1 (stereo not shown) | 10.2%

Row | SMILES | hERG current change (%, negative = inhibition) at 1uM
45 | Cc1ccc(-c2cc(C(=O)Nc3nccs3)c3ccccc3n2)o1 | 9.83%
46 | O=C(Nc1ncnc2sc3c(c12)CCCCC3)c1ccc(F)cc1 | 14.2%
47 | COc1ccc(-c2cc(C(F)(F)F)nc(N3CCCCCC3)n2)cc1 | 7.55%
48 | COc1ccc(C(=O)OCCN2CCOCC2)cc1.Cl | 5.09%
49 | O=C1c2ccccc2S(=O)(=O)N1Cc1c(F)cccc1Cl | 1.17%
50 | O=C(NC(=S)N1CCCCCC1)C1CC1 | 12.4%
51 | CC(C)(C)C(=O)/C=C/Nc1ccccc1O | 12.1%
52 | COc1ccc(-c2cn(CC3CCCCC3)nn2)cc1 | 13.8%
53 | CCc1cc(=O)oc2cc(C)cc(OCC(=O)N3CCC(C(=O)NC(C)C)(c4ccccc4)CC3)c12 | 0.682%
54 | COCCNc1ccc([N+](=O)[O-])cc1C(=O)NC1CCCc2ccccc21 (stereo not shown) | -6.2%
55 | CC(=O)N1CCN(S(=O)(=O)c2cccc(C(=O)NNC(=O)COc3ccc(F)cc3)c2)CC1 | 5.66%
56 | O=C(CSc1ccccn1)N/N=C/c1ccccc1[N+](=O)[O-] | -6.73%
57 | Cc1nnc2ccc(N3CCCC3)nn12 | 11.1%
58 | COc1ccc(NC(=O)CSc2nc3scc(C)c3c(=O)[nH]2)cc1 | 5.48%
59 | Cc1cccc(NC(=O)[C@@H]2CCCN2C(=O)OC(C)(C)C)c1C | 6.11%
60 | O=C(O)c1ccc(NS(=O)(=O)c2cccc(C(=O)Nc3ccc([N+](=O)[O-])cc3)c2)cc1 | 16.7%
61 | COc1cccc(C(=O)c2c[nH]c(C(=O)NCCCN(C)C)c2)c1 | 8.91%
62 | O=C(CNCC1CCCCC1)Nc1cccc(S(=O)(=O)N2CCOCC2)c1 | 12.7%
63 | CCN(CC(=O)Nc1c(F)cccc1F)C(=O)c1ccc(S(=O)(=O)N2CCCCC2)cc1 | 3.07%
64 | COCCn1c(SCC(=O)Nc2cccc(C)n2)nnc1-c1ccco1 | 12.8%
65 | Cc1c(N=Cc2ccc(Cl)o2)c(=O)n(-c2ccccc2)n1C | 4.28%
66 | CCOc1ccc(-c2n[nH]c(C)c2Oc2ccccc2OC)c(O)c1 | 12.4%

Row | SMILES | hERG current change (%, negative = inhibition) at 1uM
67 | COc1cc([N+](=O)[O-])ccc1-c1ccc(/C=N/NC(N)=O)o1 | 12.3%
68 | N#C/C(=C1/C(=O)Nc2ccc(Br)cc21)c1ccccn1 | 11.6%
69 | CCN1CCN(C(=O)CN(CC)S(=O)(=O)c2ccc3ccccc3c2)CC1 | 8.7%
70 | CCN(CC)CCNC(=O)C(=O)Nc1ccc2c(c1)N(S(=O)(=O)c1cccs1)CCC2 | -23.6%
71 | CCCc1cc(=O)n2nc(N3CCC(C(=O)Nc4c(F)c(F)c(F)c(F)c4F)CC3)sc2n1 | -2.57%
72 | O=C(CSc1nc2ccccc2c(=O)n1CCCO)NC1CC1 | 4.35%
73 | CCC(CC)C(=O)OCC(=O)Nc1cc(OC)c([N+](=O)[O-])cc1C | -7.12%
74 | COC(=O)c1cc(COc2ccc3oc(C)c(C(=O)OC)c3c2)c(C)o1 | 5.44%
75 | CC1CCN(C(=O)c2ccc(NC(=O)CC3SC(N4CCCC4)=NC3=O)cc2)CC1 (stereo not shown) | 17.1%
76 | O=C(NCCCN1CCOCC1)c1onc(CSc2ccncc2)c1C(=O)NCCCN1CCOCC1 | 3.33%
77 | CCOC(=O)c1ccc(-n2c(C)nc3ccccc3c2=O)cc1 | 2.26%
78 | O=C(c1ccc(CS(=O)(=O)Cc2ccccc2)cc1)N1CCCCC1 | 25%
79 | CC(=O)Nc1c([N+](=O)[O-])cc2[nH]c(=O)[nH]c2c1[N+](=O)[O-] | 13.6%
80 | Oc1ccccc1Nc1ccccn1 | 12.5%
81 | CCOc1ccccc1C(=O)Nc1ccc(-n2nncc2C(C)(C)C)cc1 | 6.74%
82 | Cc1ccc(/C=N/NC(=O)c2nnn(-c3nonc3N)c2C(C)C)o1 | 7.2%
83 | O=C(Nc1cccc2cccnc12)c1ccccc1Br | 9.36%
84 | COc1ccc(S(=O)(=O)NCC2CCCN(C(=O)CCC(F)(F)F)C2)cc1 (stereo not shown) | 7.38%
85 | COc1ccc(S(=O)(=O)N2CC(C)N(S(=O)(=O)c3ccc(OC)cc3)CC2C)cc1 (stereo not shown) | -6.25%
86 | O=c1cccc(-c2ccc(Br)cc2)o1 | 7.49%
87 | CC(C)(C)c1cc(-c2ccco2)c(C#N)c(SCC#N)n1 | 16.6%
88 | O=C(N/C(=C/c1ccccc1)C(=O)N1CCOCC1)c1ccc([N+](=O)[O-])cc1 | -19.6%
